Data as given in a collection of fitness landscapes (doi:10.1126/science.1257360).
The list shows a part of the results.

B1: PhoQ; a variant is named by its letters at X, in order, P23837 (parent)
chain: MKKLLRLFFPLSLRVRFLLATAAVVLVLSLAYGMVALIGYSVSFDKTTFRLLRGESNLFYTLAKWENNKLHVELPENIDKQSPTMTLIYDENGQLLWAQRDVPWLMKMIQPDWLKSNGFHEIEADVNDTSLLLSGDHSIQQQLQEVREDDDDAEMTHSVAVNVYPATSRMPKLTIVVVDTIPVELKSSYMVWSWFIYVLSANLLLVIPLLWVAAWWSLRPIEALAKEVRELEEHNRELLNPATTRELTSLVRNLNRLLKSERERYDKYRTTLTDLTHSLKTPLXXLQXXLRSLRSEKMSVSDAEPVMLEQISRISQQIGYYLHRASMRGGTLLSRELHPVAPLLDNLTSALNKVYQRKGVNISLDISPEISFVGEQNDFVEVMGNVLDNACKYCLEFVEISARQTDEHLYIVVEDDGPGIPLSKREVIFDRGQRVDTLRPGQGVGLAVAREITEQYEGKIVAGESMLGGARMEVIFGRQHSAPKDE

Variants of: B1
Assay: enrichment ratio after two sorts for PhoP signalling (ratio (wild type AVST 3.29)); higher = more functional
Conditions: with PhoP (E. coli)

Variant	enrichment ratio
STFK	≤ 0.25
DINV	≤ 0.25
IDCC	≤ 0.25
PWWY	≤ 0.25
WITI	≤ 0.25
YKAM	≤ 0.25
DWGN	≤ 0.25
LRMW	≤ 0.25
IANC	≤ 0.25
ADHL	≤ 0.25
NMAF	≤ 0.25
EKRY	≤ 0.25
FNSG	≤ 0.25
NCHC	≤ 0.25
DFVM	≤ 0.25
FDIH	≤ 0.25
IYTN	≤ 0.25
GIVM	3.78
DYER	≤ 0.25
DMTY	≤ 0.25
RHRP	≤ 0.25
FCIQ	≤ 0.25
HGST	≤ 0.25
LWLH	≤ 0.25

Variant	enrichment ratio
KVND	≤ 0.25
IVDK	≤ 0.25
TWWR	≤ 0.25
RMVM	≤ 0.25
RMFT	≤ 0.25
VSKQ	≤ 0.25
KSGV	≤ 0.25
MEIN	11.2
GVIL	4.78
FDAE	≤ 0.25
HWEN	≤ 0.25
IIMT	≤ 0.25
KLEG	≤ 0.25
VNWK	≤ 0.25
DITE	≤ 0.25
YSMQ	0.875
GFVH	≤ 0.25
EFIL	≤ 0.25
NFIM	≤ 0.25
DEEC	≤ 0.25
PMYR	≤ 0.25
ITRS	≤ 0.25
LRQD	≤ 0.25
KIWH	≤ 0.25

Variant	enrichment ratio
QMRM	≤ 0.25
FEGG	≤ 0.25
HCLE	≤ 0.25
VRRW	0.561
VTAT	≤ 0.25
LMKF	≤ 0.25
QRIP	≤ 0.25
KMQD	≤ 0.25
SMPH	≤ 0.25
TACL	11.4
VAYH	≤ 0.25
DDQY	≤ 0.25
FDFE	≤ 0.25
WPHN	≤ 0.25
SNMS	12
MTRP	≤ 0.25
FRVD	≤ 0.25
QTHW	≤ 0.25
APRW	≤ 0.25
MCNY	≤ 0.25
TCMP	≤ 0.25
VCCH	0.637
LCPE	≤ 0.25
HRQH	≤ 0.25

Variant	enrichment ratio
VDAT	≤ 0.25
ALSI	7.77
KQLL	≤ 0.25
PMTT	≤ 0.25
FILR	≤ 0.25
ESGR	≤ 0.25
VRPK	≤ 0.25
WQKP	≤ 0.25
ADTV	0.277
AQSV	6.04
CSDL	≤ 0.25
KYRD	≤ 0.25
KLNE	≤ 0.25
SYDL	≤ 0.25
QEPC	≤ 0.25
VTLR	≤ 0.25
SIGN	7.14
YAAR	≤ 0.25
KHCW	≤ 0.25
DRNS	≤ 0.25
GLHS	≤ 0.25
KRMR	≤ 0.25
YGWY	≤ 0.25
MFNR	≤ 0.25

Variant	enrichment ratio
LLPS	≤ 0.25
MKSE	≤ 0.25
PLWT	≤ 0.25
VHEF	≤ 0.25
SIHM	0.394
HKTP	≤ 0.25
AMMP	≤ 0.25
TIAR	5.85
THHQ	≤ 0.25
IKLQ	≤ 0.25
DICR	≤ 0.25
ADSI	≤ 0.25
TYLE	≤ 0.25
PIQY	≤ 0.25
INCI	≤ 0.25
EHVV	≤ 0.25
SLDF	≤ 0.25
ESFG	≤ 0.25
IGGL	≤ 0.25
KLGG	≤ 0.25
RSKR	≤ 0.25
GADP	≤ 0.25
TYCW	≤ 0.25
IWVN	≤ 0.25

Variant	enrichment ratio
KKVP	≤ 0.25
NHGQ	≤ 0.25
WRCY	≤ 0.25
REFL	≤ 0.25
HNAS	3.94
YAFE	≤ 0.25
WQCH	≤ 0.25
YEGC	≤ 0.25
IRWT	≤ 0.25
RQRF	≤ 0.25
ETVW	≤ 0.25
CYLY	≤ 0.25
LMWV	≤ 0.25
ANTT	2.07
QRYN	≤ 0.25
NGLS	≤ 0.25
ESTQ	≤ 0.25
DAMV	≤ 0.25
LTPS	≤ 0.25
LYMC	≤ 0.25
VWEP	≤ 0.25
VVED	≤ 0.25
VKGE	≤ 0.25
GQFC	≤ 0.25

Variant	enrichment ratio
PETA	≤ 0.25
YMQS	≤ 0.25
TYEG	≤ 0.25
KHYW	≤ 0.25
LEID	≤ 0.25
SHDA	≤ 0.25
DGHP	≤ 0.25
PWCY	≤ 0.25
ESVS	≤ 0.25
VMKI	≤ 0.25
RLVF	≤ 0.25
PKCI	≤ 0.25
IVID	≤ 0.25
GPHL	≤ 0.25
KGQD	≤ 0.25
FTPM	≤ 0.25
KHEC	≤ 0.25
RHKI	≤ 0.25
LTTC	≤ 0.25
VVCA	≤ 0.25
DVTC	≤ 0.25
RTAV	≤ 0.25
DMRH	≤ 0.25
DYSR	≤ 0.25

Variant	enrichment ratio
MPVV	≤ 0.25
EKNQ	≤ 0.25
FEPE	≤ 0.25
ATMG	16.2
DERS	≤ 0.25
KVAL	≤ 0.25
TWMS	≤ 0.25
ASPM	0.773
MPSD	≤ 0.25
IQTS	≤ 0.25
YKPG	≤ 0.25
HILQ	≤ 0.25
RRLF	≤ 0.25
HRID	≤ 0.25
QDRT	≤ 0.25
NHDC	≤ 0.25
NCFV	≤ 0.25
KVEP	≤ 0.25
YAEY	≤ 0.25
EVRS	≤ 0.25
LQYT	≤ 0.25
IDKY	≤ 0.25
WNCR	≤ 0.25
IRGM	≤ 0.25

Variant	enrichment ratio
LNSQ	≤ 0.25
REFA	≤ 0.25
SRTP	≤ 0.25
LDVA	≤ 0.25
RQTY	≤ 0.25
QFQF	≤ 0.25
FMVQ	≤ 0.25
MKAS	≤ 0.25
RRDT	≤ 0.25
YSLN	6.8
GEFF	≤ 0.25
YEGV	≤ 0.25
LEAI	1.92
QGTP	≤ 0.25
VACC	≤ 0.25
IEYG	≤ 0.25
MYSR	≤ 0.25
IHVK	≤ 0.25
RKTL	≤ 0.25
WRAF	1.01
LMIQ	≤ 0.25
DFKG	≤ 0.25
PYWN	≤ 0.25
SIIR	0.517

Variant	enrichment ratio
IGIP	≤ 0.25
KAPG	≤ 0.25
VCYL	≤ 0.25
FHML	≤ 0.25
MHWK	≤ 0.25
WDKF	≤ 0.25
GMLM	1.25
TMNE	≤ 0.25
GILL	18.2
YAGE	≤ 0.25
TFIK	0.398
DIIN	≤ 0.25
VQFQ	≤ 0.25
PALY	≤ 0.25
FALI	15.1
DAIV	≤ 0.25
AFAL	≤ 0.25
PSYI	≤ 0.25
GNNW	≤ 0.25
RPTF	≤ 0.25
KSMM	≤ 0.25
AKHT	≤ 0.25
PEHM	≤ 0.25
WPTC	≤ 0.25

Variant	enrichment ratio
FQHI	≤ 0.25
QEQV	≤ 0.25
WTCR	≤ 0.25
ALMR	≤ 0.25
LIWC	≤ 0.25
VRAG	≤ 0.25
YQPK	≤ 0.25
MNPF	≤ 0.25
ESIW	≤ 0.25
KSDQ	≤ 0.25
PWYL	≤ 0.25
REPK	≤ 0.25
NCKL	≤ 0.25
HNDK	≤ 0.25
YGKH	≤ 0.25
ECYC	≤ 0.25
APHE	≤ 0.25
NPDF	≤ 0.25
HRDN	≤ 0.25
AWST	≤ 0.25
WDSE	≤ 0.25
KDCV	≤ 0.25
YGET	≤ 0.25
TCEL	5.12

Variant	enrichment ratio
RTMV	≤ 0.25
TYHQ	≤ 0.25
EGKW	≤ 0.25
TWQQ	≤ 0.25
TEFC	14.4
IDQL	≤ 0.25
NIMV	0.418
GNCC	10.9
SKYL	≤ 0.25
THMP	≤ 0.25
DHRI	≤ 0.25
ERAW	≤ 0.25
PSNT	≤ 0.25
VIHC	≤ 0.25
PACK	≤ 0.25
MYYC	≤ 0.25
LRTI	≤ 0.25
PRMN	≤ 0.25
RCTH	≤ 0.25
VKFR	≤ 0.25
LCIP	≤ 0.25
LGKQ	≤ 0.25
YDMR	≤ 0.25
GWPA	≤ 0.25

Variant	enrichment ratio
DFEA	≤ 0.25
TYYI	≤ 0.25
GPAT	≤ 0.25
PHLM	≤ 0.25
RLKN	≤ 0.25
NYMT	≤ 0.25
ENNT	≤ 0.25
DSCC	≤ 0.25
EMVI	≤ 0.25
HFQY	≤ 0.25
SPMH	≤ 0.25
PRCW	≤ 0.25
HLTS	≤ 0.25
AQFC	≤ 0.25
SNDH	≤ 0.25
KRIP	≤ 0.25
EWGR	≤ 0.25
PWAG	≤ 0.25
